Experimental data taken from US20230192795A1 (Hoffmann-La Roche, published 2023).
Where two headings read alike, the source gives them in different places.

B1: Reference Molecule 7 (other)
light: DIVMTQSPDSLAVSLGERATINCKASESVDTSDNSFIHWYQQKPGQSPKLLIYRSSTLESGVPDRFSGSGSGTDFTLTISSLQAEDVAVYYCQQNYDVPWTFGQGTKVEIKRTVAAPSVFIFPPSDEQLKSGTASVVCLLNNFYPREAKVQWKVDNALQSGNSQESVTEQDSKDSTYSLSSTLTLSKADYEKHKVYACEVTHQGLSSPVTKSFNRGEC
heavy 1: EVQLLESGGGLVQPGGSLRLSCAASGFSFSSYTMSWVRQAPGKGLEWVATISGGGRDIYYPDSVKGRFTISRDNSKNTLYLQMNSLRAEDTAVYYCVLLTGRVYFALDSWGQGTLVTVSSASTKGPSVFPLAPSSKSTSGGTAALGCLVKDYFPEPVTVSWNSGALTSGVHTFPAVLQSSGLYSLSSVVTVPSSSLGTQTYICNVNHKPSNTKVDKKVEPKSCDKTHTCPPCPAPEAAGGPSVFLFPPKPKDTLMISRTPEVTCVVVDVSHEDPEVKFNWYVDGVEVHNAKTKPREEQYNSTYRVVSVLTVLHQDWLNGKEYKCKVSNKALGAPIEKTISKAKGQPREPQVCTLPPSRDELTKNQVSLSCAVKGFYPSDIAVEWESNGQPENNYKTTPPVLDSDGSFFLVSKLTVDKSRWQQGNVFSCSVMHEALHNHYTQKSLSLSPGK
heavy 2: EVQLLESGGGLVQPGGSLRLSCAASGFSFSSYTMSWVRQAPGKGLEWVATISGGGRDIYYPDSVKGRFTISRDNSKNTLYLQMNSLRAEDTAVYYCVLLTGRVYFALDSWGQGTLVTVSSASTKGPSVFPLAPSSKSTSGGTAALGCLVKDYFPEPVTVSWNSGALTSGVHTFPAVLQSSGLYSLSSVVTVPSSSLGTQTYICNVNHKPSNTKVDKKV[human IgG1 Fc with changes left out]GGGGSGGGGSGGGGSDCDIEGKDGKQYESVLMVSIDQLLDSMKEIGSNSLNNEFNFFKRHISDANKEGMFLFRAARKLRQFLKMNSTGDFDLHLLKVSEGTTILLNSTGQVKGRKPAALGEAQPTKSLEENKSLKEQKKLNDLSFLKRLLQEIKTCWNKILMGTKEH
notes: Format as m1; IL-7 SS3 (C47S/C92S, C34S/C129S); also called P1AF9649-012
B2: Reference Molecule 2 (other)
light: DVVMTQSPLSLPVTLGQPASISCRSSQSLVHANTNTYLEWYQQRPGQSPRLLIYKVSNRFSGVPDRFSGSGSGTDFTLKISRVEAEDVGVYYCFQGTHVPNTFGQGTKLEIKRTVAAPSVFIFPPSDEQLKSGTASVVCLLNNFYPREAKVQWKVDNALQSGNSQESVTEQDSKDSTYSLSSTLTLSKADYEKHKVYACEVTHQGLSSPVTKSFNRGEC
heavy: QIQLVQSGSELKKPGASVKVSCKASGYTFTHYAMNWVRQAPGQGLEWMGWINTNTGEPTYAQGFTGRFVFSLDTSVSTAYLQISSLKAEDTAVYYCAREREPGMDNWGQGTLVTVSS[human IgG1 constant region with changes left out]GGGGSGGGGSGGGGSDSDIEGKDGKQYESVLMVSIDQLLDSMKEIGSNCLNNEFNFFKRHISDANKEGMFLFRAARKLRQFLKMNSTGDFDLHLLKVSEGTTILLNSTGQVKGRKPAALGEAQPTKSLEENKSLKEQKKLNDLCFLKRLLQEIKTSWNKILMGTKEH

How the values were obtained:
[1] = target: T1, IL-7Rα/IL-2Rγ on human T cells (human, UniProt P16871 21-459; P31785 23-369); assay: cell-based or functional assay
T1 sequence (looked up) 1: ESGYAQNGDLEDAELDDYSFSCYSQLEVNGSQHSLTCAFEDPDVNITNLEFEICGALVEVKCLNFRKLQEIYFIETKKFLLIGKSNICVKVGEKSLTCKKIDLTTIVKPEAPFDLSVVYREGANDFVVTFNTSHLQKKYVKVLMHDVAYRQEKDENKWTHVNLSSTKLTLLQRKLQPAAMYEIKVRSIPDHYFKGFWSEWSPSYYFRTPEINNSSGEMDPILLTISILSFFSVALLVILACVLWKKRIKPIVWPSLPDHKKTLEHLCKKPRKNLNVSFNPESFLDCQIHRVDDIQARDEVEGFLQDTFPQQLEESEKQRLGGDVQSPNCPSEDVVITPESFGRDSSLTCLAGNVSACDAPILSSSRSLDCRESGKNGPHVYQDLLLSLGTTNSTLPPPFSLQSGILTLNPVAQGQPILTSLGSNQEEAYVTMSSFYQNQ
T1 sequence (looked up) 2: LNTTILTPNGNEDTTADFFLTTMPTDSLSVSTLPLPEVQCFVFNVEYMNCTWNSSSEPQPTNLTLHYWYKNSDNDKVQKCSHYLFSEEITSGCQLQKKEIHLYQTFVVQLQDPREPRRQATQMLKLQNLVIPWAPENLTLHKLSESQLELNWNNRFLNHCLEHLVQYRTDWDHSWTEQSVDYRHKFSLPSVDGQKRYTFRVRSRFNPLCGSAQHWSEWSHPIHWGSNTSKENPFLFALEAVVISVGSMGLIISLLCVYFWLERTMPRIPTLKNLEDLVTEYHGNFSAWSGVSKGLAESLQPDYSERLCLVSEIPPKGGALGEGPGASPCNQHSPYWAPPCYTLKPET

[2] = target: T2, Human IL7Ra-IL2Rγ-Fc heterodimer (human, biotin on the avi tag); assay: SPR, captured via anti-P329G
T2 construct: Extracellular domains of IL-7Ralpha and IL-2Rgamma fused to Fc knob and Fc hole; also called hu IL7Ra-IL2Rγ-Fc avi biotin; human IL7Ra-IL2Rg-Fc biotin
Experimental: SPR experiments were performed on a Biacore 8 K with HBS-EP + 1 mg/ml BSA as running buffer. Anti-P329G Fc specific antibody (Roche internal) was directly immobilized by amine coupling on a C1 chip (Cytiva). The PD1-IL7 constructs were captured for 140 s at 5 nM. […] The dissociation phase was monitored for 800 s and triggered by switching from the sample solution to running buffer. The chip surface was regenerated after every cycle using two injections of 10 mM glycine pH 2 for 60 sec. Bulk refractive index differences were corrected for by subtracting the response obtained on the reference flow cell (containing immobilized anti P329G Fc specific IgG only). The affinity constants were derived from the kinetic rate constants by fitting to a 1:1 Langmuir binding using the Biacore evaluation software (Cytiva).
Four IL7 single variants, two IL7 double variants and IL7 wild-type were compared to four reference molecules with modified IL7 for binding to human IL7 receptor (Table 23). The affinity of the IL7 variants to the IL7 receptor was determined using the recombinant heterodimer of the extracellular domains of the IL7 receptor alpha chain and the common IL2 receptor gamma chain.

human PD-1 on T cells [3] = target: T3, human PD-1 on T cells (human, UniProt Q15116 25-288); assay: cell-based or functional assay
[4] = target: T1, IL-7Rα/IL-2Rγ on human T cells; assay: cell-based or functional assay; remark: listed apart in the source
[5] = target: T1, IL-7Rα/IL-2Rγ on human T cells; assay: cell-based or functional assay; remark: listed apart in the source
human PD-1 on T cells [6] = target: T3, human PD-1 on T cells; assay: cell-based or functional assay; remark: listed apart in the source
T3 sequence (Q15116 25-288 limits assumed): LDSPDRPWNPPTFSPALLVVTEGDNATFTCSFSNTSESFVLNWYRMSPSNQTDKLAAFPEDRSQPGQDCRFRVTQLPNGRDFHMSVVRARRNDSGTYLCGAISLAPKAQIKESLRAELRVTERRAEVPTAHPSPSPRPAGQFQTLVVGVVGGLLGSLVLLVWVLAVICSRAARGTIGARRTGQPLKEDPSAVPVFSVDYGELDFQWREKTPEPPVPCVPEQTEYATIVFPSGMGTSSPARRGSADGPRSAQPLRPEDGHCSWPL

[7] = target: T1, IL-7Rα/IL-2Rγ on human T cells; assay: cell-based or functional assay; remark: listed apart in the source

Binder	STAT5-P Area (PD1+) [1]	STAT5-P Area (PD1 blocked) [1]	binding result [2]	STAT5-P activity, PD-1 pre-blocked versus PD-1+ T cells (human PD-1 on T cells [3]) [fold]	STAT5-P Area (PD1+) [4]	STAT5-P Area (PD1 blocked) [4]	EC50 [PD1+]/ EC50[PD1-IL7wt] [5] [fold]	STAT5-P AUC PD1+ [5]	STAT5-P AUC PD1 blocked [5]	EC50 [PD1blocked]/ EC50 [PD1+] (human PD-1 on T cells [6]) [fold]	EC50[active] / EC50 [active PD1-IL7wt] [7] [fold]	EC50[fresh]/EC50 [fresh PD1-IL7wt] [7] [fold]	STAT5-P AUC [active] [7]	STAT5-P AUC [fresh] [7]
B1	9	1.5	no binding (tested: 2.34 to 300 nM receptor-Fc)											
B2				> 12	45.1	15.4	33.5	59.6	22.9	11.6	39.8	135	84.5	176
